# Source: the supplement of paper PMC8728848
# The other results are listed elsewhere or left out.
# B1: MRCL (Homo sapiens), NP_872425.1 (protein)
# chain: ATKVHFPFHTCDLRIDGDCFMVSSEADTYYRARMKCQRKGGVLAQIKSQKVQDILAFYLGRLETTNEVTDSDFETRNFWIGLTYKTAKDSFRWATGEHQAFTSFAFGQPDNHGLVWLSAAMGFGNCVELQASAAFNWNNQRCKTRNRYICQFAQEHISRWGPGS
# Tests used:
# Assay in all cases: glycan array binding signal (z-score within array); higher = stronger binding
# Conditions in all cases: glycan notation: IUPAC condensed, linker removed
# GlcNAc(b1-4)GlcNAc = target: GlcNAc(b1-4)GlcNAc
# In short: (§1)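 The binding signal is a Z-score computed within each array and averaged over linkers. Arrays of the same protein sequence at different concentrations or buffers were also averaged together. Data originate from 3228 arrays in the Consortium for Functional Glycomics database, kept only where the protein sequence was available.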
# [1] = target: GlcNAc(b1-4)GlcNAc(b1-4)GlcNAc
# In short: as §1
# [2] = target: GlcNAc(b1-4)GlcNAc(b1-4)GlcNAc(b1-4)GlcNAc(b1-4)GlcNAc
# In short: as §1
# [3] = target: GlcNAc(b1-4)GlcNAc(b1-4)GlcNAc(b1-4)GlcNAc(b1-4)GlcNAc(b1-4)GlcNAc
# In short: as §1
# [4] = target: GlcNAc(b1-4)[GlcNAc(b1-6)]GalNAc
# In short: as §1
# [5] = target: GlcNAc(b1-6)Gal(b1-4)GlcNAc
# In short: as §1
# GlcNAc(b1-6)GalNAc = target: GlcNAc(b1-6)GalNAc
# In short: as §1
# GlcNAc3Prop(b1-4)GlcNAc = target: GlcNAc3Prop(b1-4)GlcNAc
# In short: as §1
# [6] = target: GlcNAc6S(b1-3)Gal(b1-4)GlcNAc
# In short: as §1
# Kdn(a2-3)Gal(b1-3)GalNAc = target: Kdn(a2-3)Gal(b1-3)GalNAc
# In short: as §1
# Kdn(a2-3)Gal(b1-3)GlcNAc = target: Kdn(a2-3)Gal(b1-3)GlcNAc
# In short: as §1
# Kdn(a2-3)Gal(b1-4)Glc = target: Kdn(a2-3)Gal(b1-4)Glc
# In short: as §1
# Kdn(a2-3)Gal(b1-4)GlcNAc = target: Kdn(a2-3)Gal(b1-4)GlcNAc
# In short: as §1
# [7] = target: Kdn(a2-3)Gal(b1-4)[Fuc(a1-3)]GlcNAc
# In short: as §1
# Kdn(a2-6)Gal(b1-4)GlcNAc = target: Kdn(a2-6)Gal(b1-4)GlcNAc
# In short: as §1
# [8] = target: Man(a1-2)Man(a1-2)Man(a1-3)Man
# In short: as §1
# [9] = target: Man(a1-2)Man(a1-2)Man(a1-6)[Man(a1-3)]Man
# In short: as §1
# Man(a1-2)Man(a1-3)Man = target: Man(a1-2)Man(a1-3)Man
# In short: as §1
# [10] = target: Man(a1-2)Man(a1-3)[Man(a1-2)Man(a1-6)]Man
# In short: as §1
# [11] = target: Man(a1-2)Man(a1-3)[Man(a1-2)Man(a1-6)]Man(a1-6)[Man(a1-2)Man(a1-2)Man(a1-3)]Man
# In short: as §1
# [12] = target: Man(a1-2)Man(a1-3)[Man(a1-2)Man(a1-6)]Man(a1-6)[Man(a1-2)Man(a1-2)Man(a1-3)]Man(b1-4)GlcNAc(b1-4)GlcNAc
# In short: as §1
# [13] = target: Man(a1-2)Man(a1-3)[Man(a1-6)]Man(a1-6)[Man(a1-2)Man(a1-3)]Man(b1-4)GlcNAc(b1-4)GlcNAc
# In short: as §1
# [14] = target: Man(a1-2)Man(a1-6)[Man(a1-3)]Man(a1-6)[Man(a1-2)Man(a1-2)Man(a1-3)]Man
# In short: as §1
# [15] = target: Man(a1-2)Man(a1-6)[Man(a1-3)]Man(a1-6)[Man(a1-2)Man(a1-2)Man(a1-3)]Man(b1-4)GlcNAc(b1-4)GlcNAc
# In short: as §1
# Man(a1-3)[Man(a1-6)]Man = target: Man(a1-3)[Man(a1-6)]Man
# In short: as §1
# [16] = target: Man(a1-3)[Man(a1-6)]Man(a1-6)[Man(a1-2)Man(a1-3)]Man(b1-4)GlcNAc(b1-4)GlcNAc
# In short: as §1
# [17] = target: Man(a1-3)[Man(a1-6)]Man(a1-6)[Man(a1-3)]Man
# In short: as §1
# [18] = target: Man(a1-3)[Man(a1-6)]Man(a1-6)[Man(a1-3)]Man(b1-4)GlcNAc(b1-4)GlcNAc
# In short: as §1
# [19] = target: Man(a1-3)[Man(a1-6)]Man(b1-4)GlcNAc(b1-4)GlcNAc
# In short: as §1
# Man(a1-6)Man = target: Man(a1-6)Man
# In short: as §1
# Man(b1-4)GlcNAc = target: Man(b1-4)GlcNAc
# In short: as §1
# Neu5Ac(a2-3)Gal = target: Neu5Ac(a2-3)Gal
# In short: as §1
# [20] = target: Neu5Ac(a2-3)Gal(b1-3)GalNAc
# In short: as §1
# [21] = target: Neu5Ac(a2-3)Gal(b1-3)GalNAc(b1-3)Gal(a1-4)Gal(b1-4)Glc
# In short: as §1
# [22] = target: Neu5Ac(a2-3)Gal(b1-3)GalNAc(b1-3)Gal(b1-4)GlcNAc
# In short: as §1
# [23] = target: Neu5Ac(a2-3)Gal(b1-3)GalNAc(b1-4)[Neu5Ac(a2-3)]Gal(b1-4)Glc
# In short: as §1
# [24] = target: Neu5Ac(a2-3)Gal(b1-3)GalNAc6S
# In short: as §1
# [25] = target: Neu5Ac(a2-3)Gal(b1-3)GlcNAc
# In short: as §1
# [26] = target: Neu5Ac(a2-3)Gal(b1-3)GlcNAc(b1-3)Gal(b1-3)GlcNAc
# In short: as §1
# [27] = target: Neu5Ac(a2-3)Gal(b1-3)GlcNAc6S
# In short: as §1
# [28] = target: Neu5Ac(a2-3)Gal(b1-3)[Fuc(a1-4)]GlcNAc
# In short: as §1
# [29] = target: Neu5Ac(a2-3)Gal(b1-3)[Fuc(a1-4)]GlcNAc(b1-3)Gal(b1-3)[Fuc(a1-4)]GlcNAc
# In short: as §1
# [30] = target: Neu5Ac(a2-3)Gal(b1-3)[Fuc(a1-4)]GlcNAc(b1-3)Gal(b1-4)[Fuc(a1-3)]GlcNAc
# In short: as §1
# [31] = target: Neu5Ac(a2-3)Gal(b1-3)[Neu5Ac(a2-3)Gal(b1-4)]GlcNAc
# In short: as §1
# [32] = target: Neu5Ac(a2-3)Gal(b1-3)[Neu5Ac(a2-6)]GalNAc
# In short: as §1
binder,measurement,setting,value
B1,glycan array binding signal (z-score),GlcNAc(b1-4)GlcNAc,-0.233
same,glycan array binding signal (z-score),[1],-0.601
same,glycan array binding signal (z-score),[2],0.255
same,glycan array binding signal (z-score),[3],-0.634
same,glycan array binding signal (z-score),[4],-0.523
same,glycan array binding signal (z-score),[5],-0.346
same,glycan array binding signal (z-score),GlcNAc(b1-6)GalNAc,-0.538
same,glycan array binding signal (z-score),GlcNAc3Prop(b1-4)GlcNAc,-0.643
same,glycan array binding signal (z-score),[6],-0.552
same,glycan array binding signal (z-score),Kdn(a2-3)Gal(b1-3)GalNAc,-0.486
same,glycan array binding signal (z-score),Kdn(a2-3)Gal(b1-3)GlcNAc,-0.398
same,glycan array binding signal (z-score),Kdn(a2-3)Gal(b1-4)Glc,-0.43
same,glycan array binding signal (z-score),Kdn(a2-3)Gal(b1-4)GlcNAc,-0.21
same,glycan array binding signal (z-score),[7],0.401
same,glycan array binding signal (z-score),Kdn(a2-6)Gal(b1-4)GlcNAc,-0.606
same,glycan array binding signal (z-score),[8],-0.351
same,glycan array binding signal (z-score),[9],0.135
same,glycan array binding signal (z-score),Man(a1-2)Man(a1-3)Man,-0.716
same,glycan array binding signal (z-score),[10],0.071
same,glycan array binding signal (z-score),[11],-0.582
same,glycan array binding signal (z-score),[12],1.73
same,glycan array binding signal (z-score),[13],-0.446
same,glycan array binding signal (z-score),[14],0.021
same,glycan array binding signal (z-score),[15],-0.551
same,glycan array binding signal (z-score),Man(a1-3)[Man(a1-6)]Man,-0.711
same,glycan array binding signal (z-score),[16],-0.572
same,glycan array binding signal (z-score),[17],-0.611
same,glycan array binding signal (z-score),[18],0.94
same,glycan array binding signal (z-score),[19],-0.585
same,glycan array binding signal (z-score),Man(a1-6)Man,0.948
same,glycan array binding signal (z-score),Man(b1-4)GlcNAc,-0.638
same,glycan array binding signal (z-score),Neu5Ac(a2-3)Gal,-0.532
same,glycan array binding signal (z-score),[20],-0.601
same,glycan array binding signal (z-score),[21],0.396
same,glycan array binding signal (z-score),[22],-0.66
same,glycan array binding signal (z-score),[23],-0.674
same,glycan array binding signal (z-score),[24],-0.071
same,glycan array binding signal (z-score),[25],-0.312
same,glycan array binding signal (z-score),[26],-0.295
same,glycan array binding signal (z-score),[27],-0.562
same,glycan array binding signal (z-score),[28],0.257
same,glycan array binding signal (z-score),[29],-0.766
same,glycan array binding signal (z-score),[30],-0.284
same,glycan array binding signal (z-score),[31],0.239
same,glycan array binding signal (z-score),[32],0.119
